This is one part of the list.
The molecules below were run on HSkMC (human skeletal muscle cells) (assay: cytotoxicity call (relative viability < 0.9)). Settings: 10 µM.
`C[C@@H]1CN([C@H](C)CO)C(=O)c2cc(NS(C)(=O)=O)ccc2O[C@@H]1CN(C)C(=O)NC1CCCCC1` was tested, and the cytotoxicity call was “inactive”.
With `C[C@H](CO)N1C[C@H](C)[C@@H](CN(C)C(=O)Nc2ccccc2)OCCCC[C@H](C)Oc2ccc(NC(=O)c3ccccc3)cc2C1=O` the cytotoxicity call was “inactive”.
With `C=C[C@](C)(O)CC/C=C(\C)C(=O)O[C@@H]1[C@@H](O[C@@](C)(C=C)CC/C=C(\C)C(=O)O[C@H]2C[C@@]3(C(=O)O[C@H]4OC[C@@H](O[C@H]5O[C@@H](CO)[C@@H](O)[C@@H](O[C@H]6O[C@@H](CO)[C@@H](O[C@H]7O[C@@H](CO)[C@@H](O)[C@@H](O)[C@@H]7O)[C@@H](O)[C@@H]6O)[C@@H]5O)[C@@H](O)[C@@H]4O)[C@@H](O)C[C@@]4(C)C(=CC[C@H]5[C@@]6(C)CC[C@@H](O[C@H]7O[C@@H](CO)[C@@H](O[C@H]8O[C@@H](CO)[C@@H](O)[C@@H](O[C@H]9OC[C@@H](O)[C@@H](O)[C@@H]9O)[C@@H]8O)[C@@H](O)[C@@H]7O)C(C)(C)[C@@H]6CC[C@@]54C)[C@@H]3CC2(C)C)OC[C@@H](O)[C@H]1O` the cytotoxicity call was “active”.
For `COCC(=O)Nc1ccc2c(c1)C(=O)N(C)C[C@@H](OC)[C@@H](C)CN(Cc1ccccc1F)[C@H](C)CO2`, the cytotoxicity call was “inactive”.
With `CCN1CCN(C(=O)NC(C(=O)NC2C(=O)N3C(C(=O)O)=C(CSc4nnnn4C)CSC23)c2ccc(O)cc2)C(=O)C1=O` (stereo not given) the cytotoxicity call was “inactive”.
In the case of `O=C(C[C@@H]1CC[C@H]2NC[C@@H](O)COC[C@@H]2O1)NCCN1CCCCC1`, the cytotoxicity call is reported as “inactive”.
In the case of `COCCOC(=O)N1C(=O)[C@@]2(c3cc(C#CCCO)ccc31)[C@H](C(=O)N1CCc3cc(OC)c(OC)cc3C1)[C@H]1C(=O)O[C@H](c3ccccc3)[C@H](c3ccccc3)N1[C@@H]2c1ccccc1OCCO`, the cytotoxicity call is reported as “inactive”.
For `CN1CCN(C(=O)C[C@@H]2CC[C@H](NC(=O)Cc3ccccn3)[C@@H](CO)O2)CC1`, the cytotoxicity call was “inactive”.
In the case of `CN1C[C@]2(CCN(C(=O)c3cn(CCN4CCNCC4)nn3)C2)OC1=O`, the cytotoxicity call is reported as “inactive”.
`O=C1c2ccccc2[C@@]2(Cc3ccccc3N(Cc3ccccc3)C2=O)[C@H](c2ccc(CO)cc2)N1Cc1ccccc1C(F)(F)F` was tested, and the cytotoxicity call was “inactive”.
With `COCC#Cc1cnc2c(c1)C(=O)N([C@H](C)CO)C[C@@H](C)[C@@H](CN(C)C(=O)Nc1cc(F)ccc1F)O2` the cytotoxicity call was “inactive”.
With `COc1cc2c(cc1OC)CC(=O)N(CCCN(C)CC1Cc3cc(OC)c(OC)cc31)CC2.Cl` (stereo not given) the cytotoxicity call was “inactive”.
In the case of `CN(C)C(=O)c1cccc(-c2cccc(-c3nc(C(=O)NCc4ccccc4)cc4c3[C@@H](CCO)N([S@](=O)C(C)(C)C)C4)c2)c1`, the cytotoxicity call is reported as “inactive”.
In the case of `C[C@@H]1CCCCO[C@H](CN(C)C(=O)NC2CCCCC2)[C@H](C)CN([C@@H](C)CO)C(=O)c2cc(NS(=O)(=O)c3ccccc3)ccc2O1`, the cytotoxicity call is reported as “inactive”.
With `C[C@@H]1CN([C@H](C)CO)C(=O)c2cccc(NC(=O)c3nc4ccccc4s3)c2O[C@@H]1CN(C)CC1CCCCC1` the cytotoxicity call was “inactive”.
In the case of `O=C(O)c1cc2cccnc2[nH]c1=O`, the cytotoxicity call is reported as “inactive”.
`CCCN(C)C[C@H]1OCCCC[C@@H](C)Oc2ccc(NC(=O)Nc3ccc(OC)cc3)cc2C(=O)N([C@H](C)CO)C[C@@H]1C` was tested, and the cytotoxicity call was “inactive”.
`NCC[C@@H]1CC[C@@H](NC(=O)C2CC2)[C@@H](CO)O1` was tested, and the cytotoxicity call was “inactive”.
`Cc1ccc(S(=O)(=O)N(C)C[C@H]2Oc3ccc(NS(=O)(=O)c4cccs4)cc3C(=O)N([C@H](C)CO)C[C@@H]2C)cc1` was tested, and the cytotoxicity call was “inactive”.
With `C[C@@H]1CCCCO[C@H](CN(C)S(=O)(=O)c2cn(C)cn2)[C@H](C)CN([C@@H](C)CO)C(=O)c2cc(NC(=O)Nc3ccc(C(F)(F)F)cc3)ccc2O1` the cytotoxicity call was “inactive”.
`C[C@@H]1CN([C@H](C)CO)C(=O)c2cc(NC(=O)Cc3ccccc3)ccc2O[C@@H](C)CCCCO[C@@H]1CN(C)C(=O)CCC(F)(F)F` was tested, and the cytotoxicity call was “inactive”.
For `CC(C)NC(=O)N(C)C[C@@H]1Oc2ccc(NC(=O)CCCN(C)C)cc2C(=O)N([C@H](C)CO)C[C@H]1C`, the cytotoxicity call was “inactive”.
For `C[C@H]1CCCCO[C@H](CN(C)CC2CC2)[C@@H](C)CN([C@@H](C)CO)C(=O)c2cc(NC(=O)Nc3ccc4c(c3)OCO4)ccc2O1`, the cytotoxicity call was “inactive”.
With `Cc1noc(C)c1NC(=O)N[C@@H]1CC[C@@H](CC(=O)NCCCN(C)C)O[C@H]1CO` the cytotoxicity call was “inactive”.
`COc1ccc2c3c([nH]c2c1)[C@@H](CO)N(C[C@]13CN(Cc2ccccc2Cl)C1)S(=O)(=O)c1cn(cn1)C` was tested, and the cytotoxicity call was “inactive”.

Source: the antibiotic and cytotoxicity screens of Wong et al. (2023)
